Test results published in PubChem BioAssay AID686970 (National Center for Advancing Translational Sciences (NCATS), 2013).
“And” between values parts separate entries of the source, which are not always exact repeats. Equal entries are not always repeated. About 6,000 (1.7%) of roughly 360,000 compounds were called active. This list was built around the results that the source calls inconclusive (neither active nor inactive); the mix of calls is not that of the screen. Calls follow the shape of the dose curve; as a rule, active = well fitted cell-killing curve with a large enough effect; inconclusive = small, poorly fitted or top-dose-only effect, or effect the other way; inactive = flat fitted curve, though single readings scatter. Where the call is inconclusive, the potency comes from a doubtful curve fit.

assay: qHTS for induction of synthetic lethality in tumor cells producing 2HG: qHTS for the HT-1080-NT fibrosarcoma cell line; conditions: HT-1080-NT fibrosarcoma viability, CellTiter-Glo ATP luminescence, 48 h; activity, negative = less viability: at 46.1 µM (top of the series) unless noted;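 also: NT is the 2HG producing partner of a matched IDH1 knockdown line; nearly all actives have a fitted effect of over 55% in size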;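 as to activity, negative = less viability: 0% = DMSO-treated cells and -100% = media-only wells without cells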
In short: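 750 cells/well, RPMI + 5% FBS; 2 h settle, compound pin-transfer, 48 h at 37 degrees C. CellTiter-Glo 10 min RT, luminescence. Normalized to DMSO and media-only wells.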
Potency is read from the fitted curve at half-maximal effect; tags tell the direction and shape of the fitted curve.

For `CC(=O)Nc1ccc2cc3ccc(NC(C)=O)cc3nc2c1`, which Potency is on record?
Its Potency is inconclusive: 16.4 µM [cytotoxic, single point].

With `CC1CCc2sc3nc(N4CCN(CCO)CC4)n4ncnc4c3c2C1` (stereo not drawn) as the compound, how does the Potency read?
Its Potency is inconclusive: 23.1 µM [cytotoxic, single point].

With `CCCNC(=O)C1(C)CCCN(Cc2ccc(C(F)(F)F)cc2)C1` (stereo not drawn) as the compound, how does the Potency read?
Its Potency is inconclusive: 2.91 µM [rising, single point].

With `COc1cc2nc(CN3CCN(S(=O)(=O)c4cc(C)ccc4C)CC3)[nH]c(=O)c2cc1OC` as the compound, how does the activity, negative = less viability read?
Its activity, negative = less viability is inconclusive: -39.2% [cytotoxic].

For `O=C(COC(=O)c1cc[n+]([O-])cc1)Nc1ccc(Cl)cc1C(F)(F)F`, which Potency is on record?
Its Potency is “inactive”.

Which Potency does the source give for `COc1ccc(NS(=O)(=O)c2cc(NC(=O)c3ccc(=O)[nH]c3)ccc2N2CCCC2)cc1` here?
The Potency was inconclusive: 2.91 µM [cytotoxic, full curve].

For `COc1ccc(NC(=O)C(=O)c2cn(CC(=O)N3CCCC3)c3ccccc23)cc1OC`, which Potency is on record?
Its Potency is “inactive”.

Which Potency does the source give for `CC(C)Cc1ccc(C(C)C(=O)Nc2ccccc2O)cc1` (stereo not drawn) here?
Its Potency is active: 3.66 µM.

With `COCCNC(=S)N/N=C(\C)c1ccc(-n2ccnc2)cc1` as the compound, how does the Potency read?
Its Potency is inconclusive: 35.5 µM [cytotoxic, single point].

Which Potency does the source give for `O=C(COC(=O)c1ccc2[nH]c3c(c2c1)CCCC3)Nc1ccccc1` here?
The Potency was inconclusive: 25.9 µM [cytotoxic, partial curve].

For `COc1ccc(-n2c(-c3cccc(OC)c3)nc(=S)c3c2CCCC3)cc1`, which Potency is on record?
The Potency was inconclusive: 35.5 µM [cytotoxic, single point].

With `O=C1Nc2ccccc2C12OC1CCCCC1O2` (stereo not drawn) as the compound, how does the Potency read?
Its Potency is “inactive”.

With `Cc1nc(NC(=O)c2ccco2)sc1-c1csc(Nc2ccc(Cl)cc2)n1` as the compound, how does the Potency read?
Its Potency is “inactive”.

With `CCCCC1C(=O)N(c2ccccc2)N(c2ccc(O)cc2)C1=O` (stereo not drawn) as the compound, how does the Potency read?
Its Potency is inconclusive: 2.91 µM [cytotoxic, single point].

With `CCCCC[C@@H](C)N1C[C@@H](COCc2ccccc2)Oc2cc(N3CC[C@H](N(C)C)C3)ccc2S1(=O)=O` as the compound, how does the Potency read?
Its Potency is active: 20.6 µM.

With `Cc1ccc(S(=O)(=O)Nc2ccccc2-c2ccccc2)cc1` as the compound, how does the Potency read?
The Potency was active: 2.91 µM.

For `Cn1ncc2c(=O)[nH]nnc21`, which Potency is on record?
Its Potency is “inactive”.

For `CCn1c(SCC(=O)Nc2nc(-c3ccccc3)cs2)nnc1-c1ccccc1`, which Potency is on record?
The Potency was inconclusive: 31.6 µM [cytotoxic, single point].

Which Potency does the source give for `Cc1ccc(Nc2nc(N)nc(CCl)n2)cc1` here?
The Potency was active: 2.31 µM.

For `Cc1c(Cl)cccc1N=Cc1ccc([N+](=O)[O-])s1`, which Potency is on record?
Its Potency is active: 12.6 µM.

With `c1ccc(-c2nc(N3CCCC3)nc3ccccc23)cc1` as the compound, how does the Potency read?
Its Potency is “inactive”.

With `COc1ccc(/C=N/Nc2nc(Nc3ccccc3)nc(N3CCCC3)n2)cc1[N+](=O)[O-]` as the compound, how does the Potency read?
The Potency was active: 14.6 µM.

With `O=C(Cn1nc2ccccc2n1)N/N=C/c1ccc(F)cc1` as the compound, how does the Potency read?
The Potency was inconclusive: 20.6 µM [cytotoxic, single point].

Which Potency does the source give for `CC1(C(=O)O)COC(c2ccc(Cl)cc2)OC1` (stereo not drawn) here?
The Potency was “inactive”.

Which Potency does the source give for `N#C/C(=N\Nc1ccc(S(=O)(=O)N2CCc3ccccc32)cc1)C(N)=S` here?
The Potency was active: 10.3 µM.

Which Potency does the source give for `Cc1ccc(Nc2nc(N)nc(CC#N)n2)cc1` here?
Its Potency is active: 12.6 µM.

For `CN1CCN(CCNC(=O)c2ccc3nc(-c4ccc(F)cc4)c(-c4ccc(F)cc4)nc3c2)CC1`, which Potency is on record?
The Potency was active: 18.4 µM.

For `CC1C(=O)N(Cc2cn(CCC3OCCCO3)nn2)CCS(=O)(=O)N1Cc1ccc(-c2ccc(Cl)c(Cl)c2)cc1` (stereo not drawn), which Potency is on record?
Its Potency is inconclusive: 29.1 µM [cytotoxic, single point].

Which Potency does the source give for `N#CC1=C(N)NC(SCc2ccccc2)=C(C#N)C12CCCCC2` here?
Its Potency is active: 7.94 µM.

Which Potency does the source give for `CCN(CC)Cc1ccc(OC)c(Cl)c1` here?
Its Potency is “inactive”.

For `Cc1ccc(-c2csc(NC(=O)CSc3nnc4c(n3)[nH]c3ccccc34)n2)cc1`, which Potency is on record?
The Potency was active: 18.4 µM.

Which Potency does the source give for `Cc1ccn2c(-c3csc(NCc4ccccc4)n3)c(C)nc2c1` here?
The Potency was inconclusive: 23.1 µM [cytotoxic, single point].

With `CC(=NNC(=S)N(Cc1ccccn1)Cc1ccccn1)c1cnccn1` as the compound, how does the Potency read?
The Potency was inconclusive: 1.46 µM [cytotoxic, full curve, poor fit].

For `COc1ccc(C(=O)Oc2ccc(F)cc2C(=O)/C=C/c2ccc(OC)c(OC)c2)cc1`, which Potency is on record?
The Potency was inconclusive: 29.1 µM [cytotoxic, single point].

With `CCC(c1nnnn1C1CCCCC1)N1CCN(C(=O)c2ccco2)CC1` (stereo not drawn) as the compound, how does the Potency read?
Its Potency is “inactive”.

With `COc1ccc(NS(=O)(=O)NC(=O)c2c(C)n(C)c3ccccc23)cc1` as the compound, how does the Potency read?
Its Potency is inconclusive: 32.6 µM [cytotoxic, single point].

For `Cc1cccc(Cn2c(C)c(C)c3cc(C(=O)NCCN4CCOCC4)ccc32)c1`, which Potency is on record?
Its Potency is inconclusive: 29.1 µM [cytotoxic, single point].

For `CCNC(=S)N/N=C/c1ccc(OCC(=O)Nc2ccc(C)cc2)cc1`, which Potency is on record?
The Potency was active: 5.62 µM.

With `CN(C)Cc1c(C(=O)N/N=C/c2ccccc2OCc2c(F)cccc2Cl)nnn1-c1nonc1N` as the compound, how does the Potency read?
Its Potency is active: 11.6 µM.

Which Potency does the source give for `Cc1ccc([N+](=O)[O-])cc1N/C=C/C(=O)c1ccco1` here?
The Potency was inconclusive: 35.5 µM [cytotoxic, single point].

With `O=C(NC(=S)NNC(=O)c1ccccc1O)c1ccccc1` as the compound, how does the activity, negative = less viability read?
The activity, negative = less viability was inconclusive: -16.3% [cytotoxic].

With `Cc1cc(CNC(=O)c2ccc3c(c2)OCO3)c2ccccc2n1` as the compound, how does the Potency read?
Its Potency is inconclusive: 29.1 µM [cytotoxic, single point].

With `CC(=O)c1ccc2c(c1)OCCOCCOCCO2` as the compound, how does the Potency read?
The Potency was inconclusive: 29.1 µM [rising, single point].

With `CCCC(=O)N(c1ccc2oc(=O)sc2c1)S(=O)(=O)c1ccccc1` as the compound, how does the Potency read?
The Potency was inconclusive: 18.4 µM [cytotoxic, partial curve].

For `COc1cc2nc(N3CCN(C(=O)C4COc5ccccc5O4)CC3)nc(N)c2cc1OC` (stereo not drawn), which Potency is on record?
Its Potency is inconclusive: 25.1 µM [cytotoxic, single point] and inconclusive: 23.1 µM [cytotoxic, single point].

Which Potency does the source give for `CC(=O)c1ccc(OCC(=O)NC(=O)NC2CCCCC2)cc1` here?
The Potency was “inactive”.

For `C=CCNc1nc(Cl)nc(Nc2ccc(OC)cc2)n1`, which Potency is on record?
Its Potency is inconclusive: 35.5 µM [cytotoxic, single point].

For `CCc1cc[n+](C2=C([O-])c3ccccc3C(=O)/C2=N\S(=O)(=O)c2cccs2)cc1`, which Potency is on record?
Its Potency is active: 18.4 µM.

For `CCc1ccc(S(=O)(=O)Nc2cccc(-c3ccc4nncn4n3)c2)s1`, which Potency is on record?
Its Potency is inconclusive: 3.66 µM [cytotoxic, full curve, poor fit].

Which Potency does the source give for `CCOc1ccc2[nH]cc(S(=O)(=O)c3ccc(C)cc3)c(=O)c2c1` here?
Its Potency is “inactive”.

Which Potency does the source give for `COc1cc(NC(=O)C2CC(c3cccc(OC)c3OC)=NO2)cc(OC)c1OC` (stereo not drawn) here?
Its Potency is inconclusive: 35.5 µM [cytotoxic, single point].

Which Potency does the source give for `CC1(C(=O)NS(=O)(=O)c2cccc(OC(F)F)c2)CCN1C(=O)COc1ccc(Cl)cc1` (stereo not drawn) here?
Its Potency is “inactive”.

Which Potency does the source give for `COc1ccc(-c2sc3cc(OC)ccc3c2-c2ccc(OCCN3CCOCC3)cc2)cc1` here?
Its Potency is inconclusive: 23.1 µM [cytotoxic, single point].

With `CCn1nc([N+](=O)[O-])c(C(C#N)c2nc3ccccc3n2C)c(Cl)c1=O` (stereo not drawn) as the compound, how does the Potency read?
The Potency was inconclusive: 20.6 µM [cytotoxic, single point].

With `CC(CC#CCN1CCOCC1)OCCC#N` (stereo not drawn) as the compound, how does the activity, negative = less viability read?
The activity, negative = less viability was inconclusive: 41.2%.

Which Potency does the source give for `CCCCN(Cc1ccco1)C(=O)C1CCCN(c2ncnc3c2nc2n3CCCCC2)C1` (stereo not drawn) here?
The Potency was inconclusive: 29.1 µM [cytotoxic, single point].

For `Cc1ccc2[nH]c(=O)c(CN(Cc3cccs3)C(=S)NCC3CCCO3)cc2c1` (stereo not drawn), which Potency is on record?
The Potency was “inactive”.

With `Cc1cc(N)n2ncc(-c3ccc(F)cc3)c2n1` as the compound, how does the Potency read?
The Potency was inconclusive: 14.6 µM [cytotoxic, single point].

Which Potency does the source give for `O=C1CCCc2c1cc(-c1ccccc1)n2-c1ccccc1` here?
The Potency was inconclusive: 35.5 µM [cytotoxic, single point].

For `Cc1cc(-c2ccc(C)c(S(=O)(=O)NCCCN3CCN(c4ccccc4)CC3)c2)on1`, which Potency is on record?
Its Potency is inconclusive: 29.1 µM [cytotoxic, single point].

For `N#Cc1c(NC(=O)c2cccnc2)sc2c1CCC2`, which Potency is on record?
The Potency was active: 16.4 µM.

Which activity, negative = less viability does the source give for `CN(C)c1ccc(/C=N/NC(=O)c2nnn(-c3nonc3N)c2CN(C)c2ccccc2)cc1` here?
Its activity, negative = less viability is inconclusive: -39.1% [cytotoxic].

With `CCOC(=O)C1=C(C)NC(=S)N(C(C)=O)C1c1ccccc1` (stereo not drawn) as the compound, how does the Potency read?
The Potency was inconclusive: 20 µM [cytotoxic, single point].

With `O=C1CC(c2ccccc2)=NN1c1ccccc1` as the compound, how does the Potency read?
The Potency was inconclusive: 4.61 µM [cytotoxic, full curve, poor fit].

Which Potency does the source give for `Cc1cccc(NC(=O)CSc2c3c(nc4ccccc24)CCC3)n1` here?
The Potency was inconclusive: 13 µM [cytotoxic, partial curve].

With `CCC(C)Sc1cccc(-c2nc3cc(C)ccn3c2NCc2ccccc2)c1` (stereo not drawn) as the compound, how does the Potency read?
The Potency was active: 20.9 µM.

With `CC(C)C[C@H]1CN(CCCC[C@@H]2CNC(=O)C(=O)N2Cc2ccccc2)C(=O)C(=O)N1Cc1ccccc1` as the compound, how does the Potency read?
Its Potency is “inactive”.

Which Potency does the source give for `Cc1ccc2sc(N(CCCN(C)C)C(=O)c3nc4ccccc4s3)nc2c1C` here?
Its Potency is inconclusive: 29.1 µM [cytotoxic, single point].

For `Cc1ccc(C)c(NC(=O)CN(C)C(=O)c2cccc(N3C(=O)CCC3=O)c2)c1`, which Potency is on record?
The Potency was “inactive”.

With `CSC(=Nc1ccccc1)N=C(SCc1ccccc1)N(C)C` as the compound, how does the Potency read?
The Potency was active: 20.6 µM.

With `CC(C)(CO)[C@@H](O)C(=O)NCCC(=O)O` as the compound, how does the activity, negative = less viability read?
The activity, negative = less viability was inconclusive: 10.3%.

With `N#C/C(=C\c1ccc([N+](=O)[O-])o1)C(=O)Nc1ccc(F)cc1` as the compound, how does the Potency read?
Its Potency is inconclusive: 29.1 µM [cytotoxic, single point].

With `Cc1ccc(-n2cc(CN3CCC(CO)(Cc4cccc(C(F)(F)F)c4)CC3)cn2)cc1` as the compound, how does the Potency read?
Its Potency is active: 23.1 µM.
